Molecules are shown by their SMILES. Screen size: about 310,000 compounds; about 2,200 (0.71%) showed an effect of 50% or more. The effect is printed as a negative number. This is one part of the list.

In this experiment the target is human ether-à-go-go-related gene (hERG) potassium channel (human, UniProt Q12809). The experiment can be described thus: primary screen, population patch clamp on CHO cells stably expressing hERG.
Chain of human ether-à-go-go-related gene (hERG) potassium channel (Q12809 whole entry, looked up): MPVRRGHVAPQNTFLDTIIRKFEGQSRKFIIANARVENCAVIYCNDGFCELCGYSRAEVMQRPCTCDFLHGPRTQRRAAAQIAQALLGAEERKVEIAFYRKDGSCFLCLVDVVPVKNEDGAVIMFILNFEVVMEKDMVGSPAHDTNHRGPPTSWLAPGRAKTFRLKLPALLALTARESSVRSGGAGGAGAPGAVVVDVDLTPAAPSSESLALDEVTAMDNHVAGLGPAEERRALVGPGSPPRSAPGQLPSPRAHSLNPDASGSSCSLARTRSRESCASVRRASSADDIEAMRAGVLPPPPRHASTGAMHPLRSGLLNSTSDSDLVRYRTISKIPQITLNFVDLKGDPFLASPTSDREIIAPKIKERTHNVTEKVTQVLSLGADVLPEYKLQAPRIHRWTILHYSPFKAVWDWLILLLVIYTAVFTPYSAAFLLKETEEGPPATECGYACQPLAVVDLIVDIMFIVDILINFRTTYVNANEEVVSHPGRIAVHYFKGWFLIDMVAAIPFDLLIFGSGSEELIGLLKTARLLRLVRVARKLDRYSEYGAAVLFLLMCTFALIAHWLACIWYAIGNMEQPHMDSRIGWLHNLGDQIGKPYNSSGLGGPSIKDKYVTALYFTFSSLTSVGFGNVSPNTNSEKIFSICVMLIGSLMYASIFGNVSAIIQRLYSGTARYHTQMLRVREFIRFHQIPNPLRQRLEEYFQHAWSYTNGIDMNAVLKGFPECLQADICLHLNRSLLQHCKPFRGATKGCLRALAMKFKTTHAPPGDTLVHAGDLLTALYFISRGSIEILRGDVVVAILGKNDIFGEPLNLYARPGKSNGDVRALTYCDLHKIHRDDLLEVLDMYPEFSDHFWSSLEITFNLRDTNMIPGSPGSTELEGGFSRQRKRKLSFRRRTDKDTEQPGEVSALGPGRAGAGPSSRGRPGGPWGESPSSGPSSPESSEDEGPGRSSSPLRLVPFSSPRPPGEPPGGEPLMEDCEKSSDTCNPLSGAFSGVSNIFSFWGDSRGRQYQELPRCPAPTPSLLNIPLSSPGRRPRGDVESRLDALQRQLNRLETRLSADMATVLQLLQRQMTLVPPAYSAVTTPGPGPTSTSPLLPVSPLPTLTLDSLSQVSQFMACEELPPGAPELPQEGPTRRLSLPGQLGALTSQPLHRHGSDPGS
As to `COCCCn1cnc2oc3nc4ccccc4nc3c2c1=O`, the “hERG current change (%, negative = inhibition) at 1uM” value was 5.49%. Turning to `COC(=O)c1sccc1NC(=O)c1csc(C)c1`, the “hERG current change (%, negative = inhibition) at 1uM” value came out at 9.14%.

On to `COc1ccc(OC)c(NC(=O)CSc2nnnn2-c2ccccc2F)c1`, for which the “hERG current change (%, negative = inhibition) at 1uM” value amounted to 13.1%. The same measure for `Cc1ccc(-n2[nH]c(C)c(/C=N/Nc3ccc([N+](=O)[O-])cc3[N+](=O)[O-])c2=O)cc1`: 10.7%; for `Cc1ccc(CN2CC(C(=O)N3CCN(S(=O)(=O)c4cccc(F)c4)CC3)CC2=O)cc1` (stereo not drawn): -9.62%; for `Cc1cc(=O)oc2cc(OCC(=O)N3CCN(C(=O)C4COc5ccccc5O4)CC3)c(Cl)cc12` (stereo not drawn): 0.472%. The value for `O=C(Nc1ccccc1)N(CCN1CCOCC1)Cc1cccc(Cl)c1` was 1.44%. As to `Cc1n[nH]c(=O)c2c1nnn2Cc1ccccc1Cl`, the “hERG current change (%, negative = inhibition) at 1uM” value amounted to 13%. Regarding `Cc1onc(-c2ccccc2)c1C(=O)N1CCc2ccccc21`, the “hERG current change (%, negative = inhibition) at 1uM” value was 20.3%. As to `O=C(Cn1c(=O)n(-c2ccccc2)c(=O)c2oc3ccccc3c21)Nc1ccccc1`, the “hERG current change (%, negative = inhibition) at 1uM” value was found to be 12.1%. The value for `CCOc1ccccc1N(CC(=O)Nc1cccc(OC)c1)S(=O)(=O)c1ccccc1` was 14.7%; that for `O=C(O)c1cccc(Nc2nc(-c3ccc([N+](=O)[O-])cc3)nc3ccccc23)c1` was 9.79%. Turning to `CN(Cc1ccccc1)C(=O)c1ccc(NC2=NC3CS(=O)(=O)CC3S2)cc1` (stereo not drawn), the “hERG current change (%, negative = inhibition) at 1uM” value was -3.47%.

For the compound `CNc1ccn(C2CCCO2)c(=O)n1` (stereo not drawn), the “hERG current change (%, negative = inhibition) at 1uM” value was 14.8%. In the case of `Cc1ccc(C(=O)N2CCN(c3ccc(NC(=O)c4cccnc4Cl)cc3)CC2)cc1`, the “hERG current change (%, negative = inhibition) at 1uM” value amounted to 1.36%. In the case of `O=C(Cc1ccc(Cl)cc1)N/N=C/c1cccc(O)c1`, the “hERG current change (%, negative = inhibition) at 1uM” value is listed as -4.42%. Consider `Cc1ccc(C(=O)/C=C\C(=O)c2ccc(C)cc2)cc1`, for which the “hERG current change (%, negative = inhibition) at 1uM” value is on record as 22.9%. As to `Cc1ccc2cc(C(c3nnnn3C3CCCC3)N3CCOCC3)c(=O)[nH]c2c1C` (stereo not drawn), the “hERG current change (%, negative = inhibition) at 1uM” value is recorded as -3.3%.

Take `Cc1cccc(Nc2nc(-c3sc(C)nc3C)cs2)c1`: the “hERG current change (%, negative = inhibition) at 1uM” value stood at 11.9%. With `CC(=O)c1cccc(OCc2cc(C(=O)N(C)C(C)c3ccccn3)no2)c1` (stereo not drawn), the “hERG current change (%, negative = inhibition) at 1uM” value came to 15.2%. In the case of `Cc1[nH]c2ccccc2c1SCc1ccccc1`, the “hERG current change (%, negative = inhibition) at 1uM” value is on record as -4.68%. Turning to `CC(C)c1ccc(C2C(C(=O)c3ccco3)=C(O)C(=O)N2CCN2CCOCC2)cc1` (stereo not drawn), the “hERG current change (%, negative = inhibition) at 1uM” value is given as 13.3%. As for `CCOc1ccc2nc(N(CCN(CC)CC)C(=O)c3cccc([N+](=O)[O-])c3)sc2c1.Cl`, the “hERG current change (%, negative = inhibition) at 1uM” value is -0.368%. With `COc1ccc(-c2c(-c3ccc(O)cc3O)n[nH]c2C)cc1OC`, the “hERG current change (%, negative = inhibition) at 1uM” value is recorded as -7.81%. Take `CCOC(=O)c1c(C)[nH]c(C)c1C(=O)COc1ncnc2cc([N+](=O)[O-])ccc12`: the “hERG current change (%, negative = inhibition) at 1uM” value is recorded as 3.53%.

Regarding `CCCCCCCCSc1nnc(CSc2nc3nc(C)cc(C)n3n2)o1`, the “hERG current change (%, negative = inhibition) at 1uM” value is listed as -3.12%. For `CCS(=O)(=O)N1CCCC(C(=O)NCc2ccccc2Cl)C1` (stereo not drawn), the “hERG current change (%, negative = inhibition) at 1uM” value is 1.54%. Regarding `Cc1ccc2c(c1)N(CC(=O)N(Cc1ccccn1)Cc1ccco1)C(=O)C(C(C)C)O2` (stereo not drawn), the “hERG current change (%, negative = inhibition) at 1uM” value stood at 1.3%. Consider `CC(C)NC(=O)c1onc(CSc2ccc(F)c(F)c2)c1C(=O)O`, for which the “hERG current change (%, negative = inhibition) at 1uM” value amounted to 10.2%. Regarding `COc1ccc2c(c1OC)C(=O)OC2`, the “hERG current change (%, negative = inhibition) at 1uM” value was found to be 14.3%. Turning to `COc1ccc(CCNC(=O)c2nnn(CC(=O)Nc3c(C)cc(C)cc3C)c2N)cc1OC`, the “hERG current change (%, negative = inhibition) at 1uM” value was found to be 8.6%.

As for `CC1(C)CC(=O)c2c(O)cc(OCC(=O)Nc3ccc(S(N)(=O)=O)cc3)cc2O1`, the “hERG current change (%, negative = inhibition) at 1uM” value came out at 6.76%.

For the compound `O=C(CCc1nnc(CCCCc2ccccc2)o1)NC1CCCC1`, the “hERG current change (%, negative = inhibition) at 1uM” value was 9.51%. The value for `COc1ccc(CCNC(=O)Nc2ccc3c(c2)OCO3)cc1OC` was 14.7%; that for `Cc1nc(Cc2nnc(SCC(=O)N3CCN(c4ccc(F)cc4)CC3)o2)cs1` was -4.72%. The same measure for `C/C(=N\NC(=O)CCCC(=O)O)c1c(-c2ccccc2)c2cc(Cl)ccc2[nH]c1=O`: 18.9%; for `CC(=O)Nc1c(O)nc(SCC(=O)Nc2nnc(SCc3ccccc3)s2)[nH]c1=O`: 14.8%; for `CCOC(=O)c1ccc(N2C(=O)CC(N3CCC(C(=O)OCC)CC3)C2=O)cc1` (stereo not drawn): 1.92%. The value for `COC(=O)c1ccc(/C=N\NC(=O)c2ccc(C)cc2Cl)cc1` was 13.7%; that for `O=C(Cc1ccc(-n2c(=O)c3ccccc3n(Cc3ccc(F)cc3)c2=O)cc1)NCC1CCCO1` (stereo not drawn) was 5.44%; that for `CC(C(=O)Nc1ccc(S(=O)(=O)N2CCCC2)cc1)N1CCc2ccccc2C1` (stereo not drawn) was 6.57%.

On to `CC(C)Oc1ccc(CCC(=O)N/N=C/c2ccncc2)cc1`, for which the “hERG current change (%, negative = inhibition) at 1uM” value turned out to be 13.6%. The same measure for `CCOC(=O)c1c(C)nc2sc3c(=O)n(-c4ccc(C(C)=O)cc4)cnc3c2c1-c1ccc(Cl)cc1`: 13.9%. The same measure for `CCN(C(=O)CN1CCc2ccccc21)c1c(N)n(Cc2ccccc2)c(=O)[nH]c1=O`: 6.71%.

`CC(C)(C)S(=O)(=O)c1ccsc1C(=O)O`: the “hERG current change (%, negative = inhibition) at 1uM” value was 6.16%. Regarding `O=C(COC(=O)c1ccccc1NS(=O)(=O)c1cccs1)NCC12CC3CC(CC(C3)C1)C2`, the “hERG current change (%, negative = inhibition) at 1uM” value was 12.2%. The value for `COC(=O)C1=C(C)N(CCCC(=O)O)C(=O)NC1c1cccs1` (stereo not drawn) was 14.4%. For `CCOC(=O)N/N=C/c1cn(Cc2ccc(Cl)cc2)c2ccccc12`, the “hERG current change (%, negative = inhibition) at 1uM” value was determined as 25.7%.

For the compound `COC(=O)c1cc(N2CCN(C)CC2)nc2ccccc12.Cl`, the “hERG current change (%, negative = inhibition) at 1uM” value came to 10.2%.

With `O=C(CCC(=O)c1ccccc1)Nc1ccc(C(=O)O)cc1`, the “hERG current change (%, negative = inhibition) at 1uM” value amounted to 13.7%. In the case of `COc1ccc(/C=N/NC(=O)C(=O)N2CCCC2)cc1`, the “hERG current change (%, negative = inhibition) at 1uM” value amounted to 13.9%.

Consider `COc1ccc2nc3ccccc3nc2c1`, for which the “hERG current change (%, negative = inhibition) at 1uM” value came to 4.47%.

For the compound `CCOC(=O)CN(Cc1ccccc1)S(=O)(=O)c1ccc(NC(C)=O)cc1`, the “hERG current change (%, negative = inhibition) at 1uM” value is recorded as -10.7%. For `CCCCn1c(=O)n(CC(=O)Nc2ccc(C)c(Cl)c2)c(=O)c2c1ncn2Cc1ccco1`, the “hERG current change (%, negative = inhibition) at 1uM” value was -2.76%.

The values above are taken from publication PMC4336329 (PLoS ONE, 2015).
